Results as given in PubChem BioAssay AID1460 (National Center for Advancing Translational Sciences (NCATS), 2008).
Screen size: about 270,000 compounds; about 5,800 (2.1%) were called active. The inconclusive results got no clear call from the source; some entries with a clear call stand among them for comparison. Calls come from the whole dose curve; as a rule, active = well fitted inhibition curve with a large enough effect; inconclusive = small, poorly fitted or top-dose-only effect; inactive = flat fitted curve, though single readings scatter. Where the call is inconclusive, the potency comes from a doubtful curve fit.

Target: Microtubule-associated protein tau (Homo sapiens) (UniProt P10636)
Test: qHTS for Inhibitors of Tau Fibril Formation, Thioflavin T Binding; note: nearly all actives have a fitted effect of over 55% in size
Details: recombinant tau K18 P301L (four-repeat tau fragment), heparin-induced fibrillization, ThT fluorescence; series mostly up to 57.4 µM; activity, negative = inhibition: at the top concentration
Outline: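 Recombinant human tau K18 fragment […] carrying P301L, 15 uM unlabeled plus 0.24 uM Alexa 594-labeled, was fibrillized with 20 uM heparin in 100 mM sodium acetate pH 7 for 6 hr at 37 C; 30 uM ThT fluorescence read after 1 hr.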
% is set by controls: 0 for no effect and ±100 for the full control effect; potency is the fitted concentration of half-maximal effect; tags give direction and shape of the fitted curve.

Chain of UniProt P10636 (P10636 whole entry, looked up): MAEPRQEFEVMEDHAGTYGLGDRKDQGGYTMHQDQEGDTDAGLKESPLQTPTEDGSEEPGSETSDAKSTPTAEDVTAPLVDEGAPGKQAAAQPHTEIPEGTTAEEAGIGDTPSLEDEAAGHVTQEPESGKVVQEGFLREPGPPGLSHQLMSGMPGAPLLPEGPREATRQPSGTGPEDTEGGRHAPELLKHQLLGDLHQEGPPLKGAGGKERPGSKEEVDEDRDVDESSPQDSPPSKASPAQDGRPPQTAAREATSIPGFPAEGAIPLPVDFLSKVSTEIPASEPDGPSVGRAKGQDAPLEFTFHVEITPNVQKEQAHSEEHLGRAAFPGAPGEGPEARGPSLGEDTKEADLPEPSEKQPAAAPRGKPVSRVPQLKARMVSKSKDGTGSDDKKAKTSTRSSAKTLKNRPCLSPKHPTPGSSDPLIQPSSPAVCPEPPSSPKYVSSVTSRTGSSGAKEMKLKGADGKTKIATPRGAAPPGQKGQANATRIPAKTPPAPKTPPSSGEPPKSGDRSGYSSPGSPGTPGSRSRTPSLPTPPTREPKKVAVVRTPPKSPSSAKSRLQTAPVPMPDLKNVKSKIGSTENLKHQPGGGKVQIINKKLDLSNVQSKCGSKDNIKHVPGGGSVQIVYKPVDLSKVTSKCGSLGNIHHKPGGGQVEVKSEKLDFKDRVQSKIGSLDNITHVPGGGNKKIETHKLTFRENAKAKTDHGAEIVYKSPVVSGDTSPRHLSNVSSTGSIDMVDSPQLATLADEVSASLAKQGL

**Q.** How did the Potency turn out when `CCOc1ccc(Nc2oc(-c3ccc(COc4ccc(OC)cc4)o3)nc2C#N)cc1` was run?
**A.** inconclusive: 1.58 µM [inhibitor, full curve]

**Q.** Which “activity, negative = inhibition” value does the source give for `Cc1cc(Nc2ccccc2F)n2nc(-c3ccccc3)nc2n1` here?
**A.** inactive: -0.939%

**Q.** How did the “activity, negative = inhibition” value turn out when `O=c1cc(CN2CCN(c3ccc(O)cc3)CC2)nc2scc(-c3ccccc3)n12` was run?
**A.** inactive: -11.8%

**Q.** With `COCCCNc1c2c3c(cccc3[nH]c1=O)C(=O)c1ccccc1-2` as the molecule, how does the Potency read?
**A.** inconclusive: 17.8 µM [activator, partial curve]

**Q.** Which Potency does the source give for `Cc1ccc(Cl)cc1NC(=S)NN` here?
**A.** inconclusive: 14.1 µM [inhibitor, partial curve]

**Q.** How did the “activity, negative = inhibition” value turn out when `CN(C(=O)CSc1nnc(-c2ccccc2)o1)c1c(N)n(Cc2ccccc2)c(=O)[nH]c1=O` was run?
**A.** inactive: -2.13%

**Q.** For `CC(C)C[C@@H](CC(=O)N[C@H](CC(=O)N[C@@H]1CCNC[C@H]1C(=O)N[C@H](CC(=O)N[C@@H](CCC(=O)O)CC(=O)O)Cc1ccccc1)C(C)C)NC(=O)[C@@H]1CNCC[C@H]1N`, which “activity, negative = inhibition” value is on record?
**A.** inactive: 5.06%

**Q.** With `Cc1ccc(C)c2nc3sc(C(=O)N4CCCc5ccccc54)c(N)c3cc12` as the molecule, how does the Potency read?
**A.** inconclusive: 5.62 µM [inhibitor, partial curve]

**Q.** How did the “activity, negative = inhibition” value turn out when `CCN(CC)CCCNc1oc(/C=C/c2ccc(OC)c(OC)c2)nc1C#N` was run?
**A.** inactive: -10.8%

**Q.** Which Potency does the source give for `COc1ccc(C2NC(=S)NC3=C2CCCC3=C2SCCS2)cc1` (stereo not given) here?
**A.** inconclusive: 20 µM [inhibitor, single point]

**Q.** For `CCN1CCN(c2cc(C)c3cc(NC(=O)c4cccs4)ccc3n2)CC1`, which Potency is on record?
**A.** inconclusive: 14.1 µM [inhibitor, partial curve]

**Q.** How did the Potency turn out when `Cc1ccc(Nc2nc3nonc3nc2Nc2cccc(C(F)(F)F)c2)cc1Cl` was run?
**A.** inconclusive: 20 µM [inhibitor, partial curve]

**Q.** How did the “activity, negative = inhibition” value turn out when `Cc1ccc(NC(=O)CSc2nnc3scc(-c4ccc(Cl)cc4)n23)cc1` was run?
**A.** inactive: 5.87%

**Q.** How did the “activity, negative = inhibition” value turn out when `Cc1[nH]n2c(=O)c3c(nc2c1-c1ccccc1)CCCC3` was run?
**A.** inactive: -3.51%

**Q.** With `C=C(C)CN(CC)c1nc(N)c(C#N)c(CC#N)c1C#N` as the molecule, how does the “activity, negative = inhibition” value read?
**A.** inactive: -19.3%

**Q.** Which Potency does the source give for `CCCc1nc2ccccc2n1C(=S)SC` here?
**A.** inconclusive: 31.6 µM [inhibitor, partial curve]

**Q.** Which “activity, negative = inhibition” value does the source give for `CCC1=NN2C(=N)/C(=C\c3cccn3-c3c(C)cccc3C)C(=O)N=C2S1` here?
**A.** inactive: -15.9%

**Q.** With `COc1ccc(C)cc1NC(=O)c1noc2c1CSc1ccccc1-2` as the molecule, how does the Potency read?
**A.** inconclusive: 14.1 µM [inhibitor, partial curve]

**Q.** With `O=C(O)c1ccccc1-c1ccc(/C=c2\sc3nc4cc(Br)cnc4n3c2=O)o1` as the molecule, how does the Potency read?
**A.** inconclusive: 28.2 µM [inhibitor, partial curve]

**Q.** `CC(C)c1nn2c(=O)cc(COC(=O)c3cccc(NC(=O)COc4ccc(F)cc4)c3)nc2s1` was tested. Which Potency did it give?
**A.** inconclusive: 0.794 µM [inhibitor, full curve, poor fit]

**Q.** How did the “activity, negative = inhibition” value turn out when `Cc1ccc(S(=O)(=O)n2nc(C)c(S(=O)(=O)N3CCCCCC3)c2C)cc1` was run?
**A.** inactive: 5.02%

**Q.** With `Cc1nc(Nc2ccc(O)cc2)c2c3c(sc2n1)CCCC3` as the molecule, how does the Potency read?
**A.** inconclusive: 12.6 µM [inhibitor, partial curve, poor fit]

**Q.** Which “activity, negative = inhibition” value does the source give for `CCOc1ccc(CNC(=O)c2cccc(NC(=O)N3CCSc4ncccc43)c2)cc1OC` here?
**A.** inactive: 2.69%

**Q.** Which Potency does the source give for `CC(=O)N1CCCc2cc(S(=O)(=O)N3CCCC(C(=O)N4CCN(c5cccc(Cl)c5)CC4)C3)ccc21` (stereo not given) here?
**A.** inconclusive: 14.1 µM [inhibitor, partial curve]

**Q.** `CCOc1cc2sc(N3CCC(C(=O)Nc4ccc(CC)cc4)CC3)nc2cc1Br` was tested. Which Potency did it give?
**A.** inconclusive: 3.98 µM [inhibitor, partial curve]

**Q.** `Cc1cc2c(n1-c1ccc(C(=O)NCCc3ccc(Cl)cc3)cc1)CCCC2` was tested. Which Potency did it give?
**A.** inconclusive: 25.1 µM [inhibitor, partial curve, poor fit]

**Q.** Which Potency does the source give for `Cc1cc(C)c2c(n1)sc1c(N3CCCCC3)ncnc12` here?
**A.** inconclusive: 12.6 µM [inhibitor, partial curve, poor fit]

**Q.** `CCCCC1=CC2=CC(=O)C(C)(OC(=O)c3cccs3)C(=O)C2=CO1` (stereo not given) was tested. Which “activity, negative = inhibition” value did it give?
**A.** inactive: -20.6%

**Q.** With `CCCn1nc2cc(C(=O)NCCCCc3ccccc3)ccc2c1OCC` as the molecule, how does the Potency read?
**A.** inconclusive: 25.1 µM [inhibitor, single point]

**Q.** Which “activity, negative = inhibition” value does the source give for `Cc1cc(C)n(-c2ccc(C(=O)Nc3cccc(S(=O)(=O)N(C)C)c3)cc2)n1` here?
**A.** inactive: 2.7%

**Q.** How did the Potency turn out when `Cc1cccc(Nc2nnc(SCc3cc(=O)n4cc(C)ccc4n3)s2)c1` was run?
**A.** inconclusive: 8.91 µM [inhibitor, full curve, poor fit]

**Q.** Which Potency does the source give for `CC(=O)Nc1ccc(-n2c(C)ccc2C)cc1` here?
**A.** inconclusive: 14.1 µM [inhibitor, partial curve]

**Q.** How did the “activity, negative = inhibition” value turn out when `CC1CCc2c(sc(NC(=O)Cn3nc(C(F)(F)F)c4c3CCCCC4)c2C#N)C1` (stereo not given) was run?
**A.** inactive: 6.66%

**Q.** With `Cc1ccc2c(CNCCc3ccccc3)c(C(=O)O)n(Cc3ccccc3C)c2c1` as the molecule, how does the “activity, negative = inhibition” value read?
**A.** inactive: 6.84%

**Q.** With `c1ccc2c(c1)CCN(C1=Nc3cccc4cccc1c34)C2` as the molecule, how does the Potency read?
**A.** active: 15.8 µM

**Q.** For `Cc1ccc(S(=O)(=O)NNC(=O)C(=O)NNc2ccccn2)cc1`, which “activity, negative = inhibition” value is on record?
**A.** inactive: -14.1%

**Q.** How did the “activity, negative = inhibition” value turn out when `Cc1ccc(C)c(CSc2nc(-c3ccccc3F)nc3c2Cc2c(CO)cnc(C)c2O3)c1` was run?
**A.** inactive: -4.39%

**Q.** For `COc1ccc(Br)cc1C1C(C(=O)Nc2ccc(C)cc2C)=C(C)Nc2ncnn21` (stereo not given), which “activity, negative = inhibition” value is on record?
**A.** inactive: -13.9%

**Q.** How did the Potency turn out when `Cc1ccc(C(=O)Nc2ccc(NC(=O)c3cccs3)cc2)cc1[N+](=O)[O-]` was run?
**A.** inconclusive: 1.58 µM [inhibitor, full curve]

**Q.** For `CC(=O)NC(Cc1ccccc1)C(=O)N1CCN(C(=S)NCC(C)C)CC1` (stereo not given), which “activity, negative = inhibition” value is on record?
**A.** inactive: -10.2%

**Q.** With `CCOC(=O)COc1nc2c(c(-c3ccco3)c1C#N)CCc1ccccc1-2` as the molecule, how does the Potency read?
**A.** inconclusive: 22.4 µM [inhibitor, single point]

**Q.** With `Cc1ccc(OCC(=O)Nc2ccccc2-c2ccccc2)cc1` as the molecule, how does the Potency read?
**A.** inconclusive: 20 µM [inhibitor, partial curve]

**Q.** For `NC(=O)c1ccccc1N/C=C/C(=O)c1ccco1`, which Potency is on record?
**A.** inconclusive: 5.01 µM [inhibitor, full curve]

**Q.** Which Potency does the source give for `Cc1cc(C)cc(NC(=O)Cn2c(-c3cncs3)nc3ccccc32)c1` here?
**A.** inconclusive: 39.8 µM [inhibitor, single point]

**Q.** `Cc1ccccc1NC(=O)CC(NCc1cccnc1)C(=O)O` (stereo not given) was tested. Which “activity, negative = inhibition” value did it give?
**A.** inactive: -10.3%

**Q.** `O=C(NNC(=O)c1ccc(NC(=O)c2ccccc2)cc1)c1ccccc1` was tested. Which “activity, negative = inhibition” value did it give?
**A.** inactive: -7.98%

**Q.** Which Potency does the source give for `COc1ccc(S(=O)(=O)N2CCN(c3cccc(C)c3C)CC2)cc1` here?
**A.** inconclusive: 15.8 µM [inhibitor, partial curve]

**Q.** For `c1ccc(COc2ccc(OCCCn3cncn3)cc2)cc1`, which Potency is on record?
**A.** inconclusive: 3.16 µM [inhibitor, full curve, poor fit]

**Q.** `Cc1cc(C)n(-c2nc3ccccc3nc2Nc2ccc(N(C)C)cc2)n1` was tested. Which Potency did it give?
**A.** inconclusive: 28.2 µM [inhibitor, partial curve]

**Q.** For `CC1CCc2c(sc(Nc3nc4c(F)cccc4s3)c2C(N)=O)C1` (stereo not given), which Potency is on record?
**A.** inconclusive: 11.2 µM [inhibitor, partial curve]

**Q.** How did the Potency turn out when `CCCCOc1ccc(-c2cn3ccccc3n2)cc1[N+](=O)[O-]` was run?
**A.** inconclusive: 10 µM [inhibitor, partial curve]

**Q.** How did the Potency turn out when `CCOC(=O)c1c(N)nn(C(=O)C(C)C)c1-c1ccc(OC)cc1` was run?
**A.** inconclusive: 44.7 µM [inhibitor, partial curve]

**Q.** How did the Potency turn out when `CCCCCn1c(NCc2ccc(OC)cc2)nc2ccccc21` was run?
**A.** inconclusive: 1 µM [inhibitor, full curve, poor fit]

**Q.** For `Nc1c(C(=O)NCc2ccco2)sc2nc3c(cc12)C(=O)CCC3`, which Potency is on record?
**A.** inconclusive: 17.8 µM [inhibitor, partial curve]

**Q.** How did the Potency turn out when `CN1CCN(C2=C(Cl)C(=O)N(Cc3ccccc3)C2=O)CC1` was run?
**A.** inconclusive: 10 µM [inhibitor, partial curve]

**Q.** Which Potency does the source give for `COC(=O)c1ccc(N=NNc2ccccc2)cc1` here?
**A.** inconclusive: 14.1 µM [inhibitor, partial curve]

**Q.** For `Clc1ccc(OCc2nc(-c3ccccn3)no2)c(Br)c1`, which Potency is on record?
**A.** inconclusive: 10 µM [inhibitor, partial curve]

**Q.** For `Cc1ccccc1N1CCN(S(=O)(=O)c2nnc(NC(=O)c3ccc(C(C)C)cc3)s2)CC1`, which Potency is on record?
**A.** inconclusive: 15.8 µM [inhibitor, partial curve]

**Q.** How did the Potency turn out when `COc1ccccc1/C=C/C(=O)Nc1ccc(N2CCOCC2)cc1` was run?
**A.** active: 2.51 µM

**Q.** With `NC(=O)CC(NC(=O)c1ccc(Br)cc1)c1ccc(N2CCN(c3ccccn3)CC2)c([N+](=O)[O-])c1` (stereo not given) as the molecule, how does the Potency read?
**A.** inconclusive: 15.8 µM [inhibitor, partial curve]

**Q.** How did the Potency turn out when `Cc1ccc(OCCN2C(=O)S/C(=C\c3ccc(C)o3)C2=O)cc1` was run?
**A.** inconclusive: 20 µM [inhibitor, partial curve]

**Q.** For `CCOC(=O)c1csc(-c2snnc2C)n1`, which Potency is on record?
**A.** inconclusive: 44.7 µM [inhibitor, single point]

**Q.** How did the Potency turn out when `CCOC(=O)CSc1nnc(CSc2nc3sc4c(c3c(=O)[nH]2)CCC4)n1C` was run?
**A.** inconclusive: 35.5 µM [inhibitor, single point]

**Q.** With `COC(=O)NC(Nc1sc2c(c1C(N)=O)CCCC2)(C(=O)OC)C(F)(F)F` (stereo not given) as the molecule, how does the Potency read?
**A.** inconclusive: 25.1 µM [inhibitor, partial curve]

**Q.** `CCN(CC)C(=S)NC(=O)c1cccnc1` was tested. Which “activity, negative = inhibition” value did it give?
**A.** inactive: 3%

**Q.** With `Cc1cc(Cl)ccc1NC(=S)NCc1ccco1` as the molecule, how does the “activity, negative = inhibition” value read?
**A.** inactive: -3.19%

**Q.** `CCn1c2ccccc2c2cc(NC(=O)c3ccccc3-c3ccccc3C(=O)O)ccc21` was tested. Which Potency did it give?
**A.** inconclusive: 10 µM [inhibitor, partial curve]

**Q.** How did the Potency turn out when `O=C(Nc1ccc(Cl)cc1)Nc1ccc(N2CCC(C(F)(F)F)CC2)nc1` was run?
**A.** inconclusive: 1.12 µM [inhibitor, full curve]

**Q.** For `Cc1ccc(C(=O)Nc2ccc(O)cc2C(=O)O)cc1`, which Potency is on record?
**A.** inconclusive: 25.1 µM [inhibitor, partial curve]

**Q.** With `Oc1[nH]c2ccc(Br)cc2c1N=NC(=S)N1CCOCC1` as the molecule, how does the Potency read?
**A.** active: 10 µM
